# Read counts are not given, so values of variants with three or more changes are uncertain.
# B1: LINE1-mini (parent)
# chain: GGCAGAGCUCAACACAGCGUGGCAAAGUGGCUGUGGCUAGACUGCC
# Variants of: B1
# Experiment: self-cleavage, relative activity (ratio to wild type); higher = more cleavage; in vitro, sequencing; the parent is a self-cleaving ribozyme
row,Variant,self-cleavage
1,GGCAGAGCGCAACACAGCGUGGCAAAGUGGCUUUCGCUAGACUGCC,0.13
2,GGCAGAGCUAAGCACAGCGUGGCAAAGUGGAUGUGGCUAGACUGCC,0.04
3,GGCAGAGCGCAACACAGCGUCGCAAAGUGGCUGUGGCUAGAUUGCC,0.04
4,GGCAGAGCGCAACACAGCGUGGCAAAGUGGCCGUGGCUAGACCGCC,0.09
5,GGCAGAGCUAAACCCAGCGUGGCAAAGUUGCUAUGGCUAGACUGCC,0.02
6,GGCAGAGCGCAACACAGUGUCGCAAAGUGGCUCUGGCUAGACUGCC,0.01
7,GGCAGAGCUAAACCCAGCGUGGCAAAGUGGGUGUGGCUAGACUGCC,0
8,GGCAGAGCUAAUCACUGCGUGGCAAAGUGGCUGUAGCUAGACUGCC,0.02
9,GGCAGAGCGCAACACAGCGUGGCAAAGUGGCUGUGGGUAGAGUGCC,0.03
10,GGCAGAGCGCAACACAGCGUGGCAAAGUGGCUGUGGAAAGACCGCC,0.08
11,GGCAGAGCUAAACCCAGCCUGGCAAAAUGGCUGUGGCUAGACUGCC,0.01
12,GGCAGAGCUAUACACAGCGAGGCAAAGUGGCUGUGGCCAGAGUGCC,0
13,GGCAGAGCUAAGGACAGCGUGGUAAAAUGGCUGUGGCUAGACUGCC,0.01
14,GGCAGAGCUAACCACAGCGUGGCAAAGUGAAUGUCGCUAGACUGUC,0
15,GGCAGAGCGCAACACAGCAUGGCAAAGUGGCUGUUGCUAGACUGCC,0.01
16,GGCAGAGCGCAACACAGCGUGCCAAAGUGGCUGUGGCUAGCCUGCC,0.03
17,GGCAGAGCUAACCACAGCGUGGCCAAGUGGCUGUGGCUAGACUGCC,0.02
18,GGCAGAGCUACACACAGCGUGGCAAAGAGACUGUGGCUAGACUGCC,0.02
19,GGCAGAGCGCAACACAGCGUGGCAAAGUGGAUGAGGCUAGACUGCC,0.02
20,GGCAGAGCUAGACGCAGAGUGGCAAAGUUGAUGUGGCUAGACUGCC,0
21,GGCAGAGCGCAACACAACGUGGCAAAGUGUCUGUGGCUAUACUGCC,0.03
22,GGCAGAGCGCAACACAGCGUAGCAAAGUGGCUGUGGUUAGAAUGCA,0.67
23,GGCAGAGCGCAACACAGCGUGCCAAAUUGGCUGUGGCUAGACUGCC,0

row,Variant,self-cleavage
1,GGCAGAGCGCAACACAGCGUGGAAAAGUGGCUGUGGCUAGGCUGUC,0.08
2,GGCAGAGCGCAACACAGCUUAGCAAAGUGGCUGUGGCUAGACUGAC,0.25
3,GGCAGAGCGCAACACAGCAUGGCAAAGAGGCAGUGGCUAGACUGCC,0.06
4,GGCAGAGCGCAACACAGCGUGUCAAAGUGGCUGUGGCUAGACCGCC,0.03
5,GGCAGAGCGCAACACAGCGUAGCAAAGUGGCUCUGGCUAGACUGGC,0.02
6,GGCAGAGCUAAGCACAGCGUGGCAAAGUGGCUGUGGCUACACUGCC,0.01
7,GGCAGAGCGCAACACAGCGUGGCAAACUGGCUGUGGCUACACUGCC,0.04
8,GGCAGAGCUAACCAGAGCGUGGCACAAUGGCUGUGGCUCGACUGCC,0
9,GGCAGAGCUAAUGAAAGCGUGGCAAAGUGGCUGUGGCUAGACUGCC,0.01
10,GGCAGAGCUAAGCACAGCGUGGCAAAGUGGCUGUGGCUAGAUUGCC,0
11,GGCAGAGCGCAACACAGCGUGGUAAAGUGGCUGUUGCUAGACUGCC,0.03
12,GGCAGAGCGCAACACAGCGUGGCAAAUUGGCAGUGGCGAGACUGCC,0.02
13,GGCAGAGCGCAACACAGCGUGACAAAGUGGCUGGUGCUAGACUGCC,0.02
14,GGCAGAGCGCAACACAGCGUGGCAAAGCGGCUGUGGCUAGACUUCC,0.04
15,GGCAGAGCUAUACAGAGCCUGGCAAAGUGGCUGUGGCUAGACUGCC,0.01
16,GGCAGAGCGCAACACACCGUGGCAAAGUGGCUGCGGCUAGACUGCC,0.03
17,GGCAGAGCGCAACACAGCGUGGCAAAGGGGCUGUGGCUAGACUGCU,0.08
18,GGCAGAGCUAAACCCAGCGUGGCAAAUUGUCUGUGGCUAGACUGCC,0.03
19,GGCAGAGCUAAACCCAGCGUGGCAAAGAGGCUGUGGCUAGCCUGCC,0
20,GGCAGAGCUAUACACAGCGUGGCAAAGUGGCAGUGGCUAGACUGCC,0.01
21,GGCAGAGCGCAACACAGCGUGACACAGUGGCUGUGGCCAGACUCCC,0.04
22,GGCAGAGCUAGACACAGUGUGGCAAAGUGGCUGCGGCUAGACUGAC,0.01
23,GGCAGAGCGCAACACAGCGUGGCAAAGAGGCGGUGGCUAGACUGCC,0.01

row,Variant,self-cleavage
1,GGCAGAGCGCAACACAACGUGGCUAAGUGGCUCUGGCUAGACUUCC,0.06
2,GGCAGAGCGCAACACAGCGAGGCAAGGUGGCUGUGGCUAGACUGCC,0.02
3,GGCAGAGCGCAACACAGCGUGGAAAAGUGGCUAUGGCUAGACUGCC,0.06
4,GGCAGAGCGCAACACAGGGUGCCAAAGUGGCUGUGGCUAGACUGGC,0.11
5,GGCAGAGCGCAACACAGCGUGGCAAAGUGGCUGUGGGUAGCCAGCC,0.06
6,GGCAGAGCGCAACACAGCGUGGCAAAGUGGCUUUGGCUAGACUGAC,0.16
7,GGCAGAGCGCAACACAGCAAGGCAAACUGGCUGUGGCUAGACUGCC,0.03
8,GGCAGAGCUACACACAGCCUGGCAAAGUGGCUGUGGCUAGACUGUC,0
9,GGCAGAGCGCAACACAGGGUGGCAUAGUGGCUGUGGCAUGGGGGCC,0.03
10,GGCAGAGCUAGACACAGCGUGGAAAAGUGGCUGUGGCUAGAAUGCC,0.02
11,GGCAGAGCUAGACACAGCGUGGCAAAGUGGCUGUGGCUAGACUGUC,0.01
12,GGCAGAGCUAGACACAGCGUGGCAAAGUGGCUGUGGCUAGAAUGCC,0
13,GGCAGAGCUAGACACAGCGUGGCAAAGUGGCUGUGGGUAGACUGCC,0.03
14,GGCAGAGCGCAACACAGCGGGGCAAAGUGGCUGUGGCUAGAUUGCC,0.01
15,GGCAGAGCGCAACACAGCUUAGCAAAGUGGCUGUGGCUAGACUGCC,0.3
16,GGCAGAGCGCAACACAGCCUGGCAAAGUGGCUGUGGCUAGCCUGCC,0.06
17,GGCAGAGCUAAACCCAGCGUGGCAAAGUGGCUGUGGCUAAACUGCC,0.02
18,GGCAGAGCGCAACACAGCGUAGCAAAGUGUAUGUGGCUAGACUGCC,0.02
19,GGCAGAGCGCAACACAGCGUGACAAGGUGGCUGUGGCUAGACUGCC,0.03
20,GGCAGAGCUAACCACAGCGUGGCAGAGUGGCUGUGGCUAGACUGCA,0.02
21,GGCAGAGCGCAACACAGCGUCGCAAAGUGGCUGUGGCUAGACUGCG,0.08
22,GGCAGAGCGCAACACAGCGCGGCAAAGUGGCUGUGGCUAGUCUGCC,0.08
23,GGCAGAGCGCAACACAGCGUGGCAAAGUUGCCGUGGCUAGACUGCC,0.01

row,Variant,self-cleavage
1,GGCAGAGCGCAACACAGCUUGGCAAAGUGGCAGUGGCUAGACUGCC,0.03
2,GGCAGAGCUAAACCCAGCGUGGCAAAGUGCCUGUGGCUAGACUGCC,0.06
3,GGCAGAGCUAACCACAGCGUGGCAAAGUGGCUGUGGCUAGACAGCC,0.02
4,GGCAGAGCUAAGCACAGCGUGGCAAAGUGGCUGUGGCGAGACUGCC,0
5,GGCAGAGCGCAACACAACGUGGCCAAGAGGCUGUGGCUAGACUGCU,0.02
6,GGCAGAGCGCAACACAGCGUGGCAAAGUGGCUGUGGCGAGAUUUCC,0.03
7,GGCAGAGCGCAACACAGCGUGGCAAAGUGGCUGUCCCUAGACUCCC,0.11
8,GGCAGAGCUAAACCCAGCGUGGCAAAGUUGCUGUGGUUAGACUGCC,0.01
9,GGCAGAGCGCAACACAGCGUGCCAAUGUGGCUGUGGCUAGACUGCC,0.05
10,GGCAGAGCUAAACGCAGCGUGGCAAAGUGGCAGUGGCUAGACUGCA,0.03
11,GGCAGAGCGCAACACAACGCGGAAAAAUGGCUGUGGCUACUCUGGC,0.01
12,GGCAGAGCUAAUCACAACGUGGCAAAGUGGCUGUGGUUAGAAUGCA,0
13,GGCAGAGCGCAACACAGCGCGGCAAAGUGGCCGUGGCUAGACUGCC,0.05
14,GGCAGAGCGCAACACAUCGUGACAAAGUAGCUGUGGCUAGACUGCG,0.09
15,GGCAGAGCGCAACACAGUGUGGCAAAGUGGCUGUGGCCAGACUGCC,0.02
16,GGCAGAGCGCAACACAGCGUGGCAAAGUGGAUGUCGCUAGACUGCC,0.01
17,GGCAGAGCUAAUCACAGUGUUGCAAAGUGGCUGUGGCUUGACUGCC,0.1
18,GGCAGAGCGCAACACAGAGUGGCAAAGUGGCUGAGGCUAGACUCCC,0.04
19,GGCAGAGCUAAGCACAGCGUGGCAAAGUGACUGUGACUAGACUGCC,0.04
20,GGCAGAGCGCAACACAGCGAGGCAAAGUGGCUGUGGCUAGAGUGCC,0.55
21,GGCAGAGCGCAACACAGAGUGGCAAAGUGGCUACGGCUAGACUGCC,0.13
22,GGCAGAGCUAACCGCAGCGUGGCAAAGUGGCUGUGGCUAGACUGCC,0.02
23,GGCAGAGCGCAACACAGCGUGGCAAAGUGGCUGUGGCGAGAGUGCC,0.01

row,Variant,self-cleavage
1,GGCAGAGCUAAACGCAGCGAUGCAAAGUGGCUGUGGCUAGACUGCC,0.04
2,GGCAGAGCUAUACACAGCGUAGCAAAGUGGCUGUGGCUAGAUUGCC,0.03
3,GGCAGAGCGCAACACAGAGUGGCAAAGUGACUGUCGCUAGACUGCC,0.03
4,GGCAGAGCUAUGCACAGGCUGGCAAAGUGGCUAUGGCUAGACUGCC,0.01
5,GGCAGAGCUAGACACAGCGUGGCAAAGUUGCUGUGGCUAUAUUGCC,0.01
6,GGCAGAGCGCAACACAACCUGGCAAACUGGUUGUGGCUAGACUGCC,0.05
7,GGCAGAGCUAUACUCAGCGUGGCAAAGUGGCUGUGGAGAGACUGUC,0.02
8,GGCAGAGCUAAACGCAGCGUGGCAAAGUGUCUGUGGCUAGACUGCC,0.01
9,GGCAGAGCGCAACACAGCCUCGCAAAGCGGCUGUGGCUCGGCUGCC,0
10,GGCAGAGCUAAACCCAGCGUGGCAAAGAGGCUGUGGCUAGACUGCA,0.01
11,GGCAGAGCUAAUAACACCGUGGCAAAGUGGCUCUGGCUAGACUGCC,0
12,GGCAGAGCUAGACAAAGCGUGGCAAAGUGGCAGUGGCUAGAUUGCC,0.01
13,GGCAGAGCGCAACACAGCGUGGGAAAGUGGCUGUGGCUAGACUACC,0.02
14,GGCAGAGCGCAACACAGCGUGGCAAAGUGUCUGUGGCUAGACUGCG,0.03
15,GGCAGAGCGCAACACAGCGUGCCUAAGUGGCUGUGGCGAGACUGCC,0.01
16,GGCAGAGCUAACCACCGCCUGGCAAAGUGGCUGUGGAUAAACUGCC,0
17,GGCAGAGCUACAGACAGCGUGGCAAAGUGGCUGUGGCUAGACUGCC,0
18,GGCAGAGCUAAUCACAGCGUAGCAAAGUGGCUGUGGAUAGACUGCC,0.02
19,GGCAGAGCGCAACACACCGUGGCAAAGUUGCUGUGGCUAGACUGCC,0.1
20,GGCAGAGCGCAACACAGCGUAGCAAAGUGGCUGUGGCUAGACUUCC,0.04

# — the RNAGym collection of RNA variant scans (doi:10.7554/elife.90254)
